{"source": "paper PMC6919601", "about": "“Identification of Plasmodium dipeptidyl aminopeptidase allosteric inhibitors by high throughput screening” (PLoS ONE, 2019)", "note": "Out of some 110,000 compounds screened, about 230 (0.21%) showed an effect of 50% or more. The list shows a part of the results."}
{"target": "DPAP1 (Plasmodium falciparum, UniProt Q8IIJ9)", "sequence (Q8IIJ9 whole entry, looked up)": "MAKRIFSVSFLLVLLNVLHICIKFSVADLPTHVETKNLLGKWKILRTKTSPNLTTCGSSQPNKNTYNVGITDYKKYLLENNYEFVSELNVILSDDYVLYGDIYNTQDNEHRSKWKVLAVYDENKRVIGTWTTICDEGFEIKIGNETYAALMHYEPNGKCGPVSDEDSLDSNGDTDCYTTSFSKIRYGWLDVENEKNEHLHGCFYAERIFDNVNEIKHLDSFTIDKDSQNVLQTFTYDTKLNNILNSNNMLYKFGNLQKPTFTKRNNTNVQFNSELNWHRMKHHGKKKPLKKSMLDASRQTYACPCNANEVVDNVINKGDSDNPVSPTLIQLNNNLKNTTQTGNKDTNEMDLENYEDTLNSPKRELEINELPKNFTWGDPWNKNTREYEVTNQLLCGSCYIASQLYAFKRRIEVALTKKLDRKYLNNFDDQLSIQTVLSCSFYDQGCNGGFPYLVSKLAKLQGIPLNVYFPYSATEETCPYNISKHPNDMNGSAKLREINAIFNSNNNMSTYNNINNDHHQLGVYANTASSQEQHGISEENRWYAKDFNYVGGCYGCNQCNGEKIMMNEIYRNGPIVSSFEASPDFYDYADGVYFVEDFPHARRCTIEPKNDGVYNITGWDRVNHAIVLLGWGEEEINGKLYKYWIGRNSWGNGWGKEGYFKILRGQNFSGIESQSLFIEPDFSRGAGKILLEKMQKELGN", "assay": "primary screen, percent inhibition; read by cleavage of a fluorogenic dipeptide substrate; higher = more effect of the substance", "parameters": "species or system P. falciparum D10 trophozoite lysates; single well", "units": {"% Inhibition @ 10 uM": "%"}}
{"compound": "CC1CC(C)(C)NC(C)c2ccccc21", "note": "(stereo not shown);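 further: 30 min substrate incubation versus DMSO and 10 µM JCP410 controls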", "% Inhibition @ 10 uM": 5.65}
{"compound": "CN(C)CCN(C)CC1CC2C=CC1C2", "note": "(stereo not shown)", "% Inhibition @ 10 uM": -4.14}
{"compound": "Oc1nncc(N2CCCC2)c1Cl", "% Inhibition @ 10 uM": -3.78}
{"compound": "CS(=O)(=O)N(CC(=O)Nc1ccccc1)c1ccc(F)cc1", "% Inhibition @ 10 uM": -5}
{"compound": "COc1cc(Br)c(/C=C2/C(=O)N=C(N)N2C)cc1OC", "% Inhibition @ 10 uM": -6.44}
{"compound": "Cc1cc(C)c(S(=O)(=O)n2cnc3ccccc32)c(C)c1", "% Inhibition @ 10 uM": -4.58}
{"compound": "Cc1cccc(Cl)c1OCCCN1CCOCC1", "% Inhibition @ 10 uM": 1.52}
{"compound": "COc1ccc(CN2CCCC(C)C2)c(OC)c1C", "note": "(stereo not shown)", "% Inhibition @ 10 uM": -3.27}
{"compound": "CN(Cc1ccccc1)C(=O)C1CCC(CNS(=O)(=O)c2cccs2)CC1", "note": "(stereo not shown)", "% Inhibition @ 10 uM": -5.2}
{"compound": "Cc1cc2oc(C(=O)N(Cc3ccccc3F)C3CCS(=O)(=O)C3)c(C)c2cc1C", "note": "(stereo not shown)", "% Inhibition @ 10 uM": 3.62}
{"compound": "Fc1c(F)c(F)c(CSc2nc3ccccc3[nH]2)c(F)c1F", "% Inhibition @ 10 uM": 1.33}
{"compound": "CN1C(=O)C(=CNc2cnc3ccccc3c2)C(=O)N(C)C1=O", "% Inhibition @ 10 uM": -4.75}
{"compound": "COc1cc(C=C(C#N)C#N)cc(OC)c1O", "% Inhibition @ 10 uM": 2.5}
{"compound": "CCN(CC)CC#CC(O)(CC)CC", "% Inhibition @ 10 uM": -5.11}
{"compound": "O=c1oc2c3c(ccc2c2ccccc12)OCN(Cc1ccco1)C3", "% Inhibition @ 10 uM": -6.29}
{"compound": "CC1CCc2c(C(=O)NC(C)C)csc2C1", "note": "(stereo not shown)", "% Inhibition @ 10 uM": 0.277}
{"compound": "CC(C)Oc1ccc(C(=O)Nc2cccc3cccnc23)cc1", "% Inhibition @ 10 uM": -0.469}
{"compound": "COc1ccc(-c2csc3ncn(CC(=O)Nc4cc(Cl)ccc4Cl)c(=O)c23)cc1OC", "% Inhibition @ 10 uM": 4.39}
{"compound": "CCC/N=c1\\c(NC(=O)c2ccccc2OCC)c(O)oc2ccccc12", "% Inhibition @ 10 uM": -1.33}
{"compound": "CCN1CC2=C(OC(N)=C(C#N)C2c2ccc(F)cc2)/C(=C/c2ccc(F)cc2)C1", "note": "(stereo not shown)", "% Inhibition @ 10 uM": 0.983}
{"compound": "N#CCNC(=O)C(Cc1c(F)cccc1F)NC(=O)c1ccc(-c2ccccc2Cl)cc1", "note": "(stereo not shown)", "% Inhibition @ 10 uM": -1.82}
{"compound": "COc1ccc(C2C(C(=O)Nc3cccnc3)=C(C)Nc3nnnn32)cc1", "note": "(stereo not shown)", "% Inhibition @ 10 uM": 1.97}
{"compound": "CC1(C)Cc2nnc3c4c(nnc(c24)C1)CC(C)(C)C3", "% Inhibition @ 10 uM": 0.415}
{"compound": "CC(C)(CNC(=O)C1CC(=O)N(c2ccccc2)C1)CNC(=O)C1CC(=O)N(c2ccccc2)C1", "note": "(stereo not shown)", "% Inhibition @ 10 uM": 3.29}
{"compound": "COc1cc(C(=O)NCC2OCCc3ccccc32)cc(OC)c1OC", "note": "(stereo not shown)", "% Inhibition @ 10 uM": -5.01}
{"compound": "O=C(CSc1nnc(CNC(=O)c2c(F)cccc2Cl)o1)NC1CCCCC1", "% Inhibition @ 10 uM": 1.85}
{"compound": "CCOC(=O)c1cnn(-c2ccccc2)c1-c1ccncc1", "% Inhibition @ 10 uM": -1.03}
{"compound": "CCOC(=O)c1c(C)c(C(=O)NC(C)(C)C)c(C)n1CC", "% Inhibition @ 10 uM": -7.18}
{"compound": "NC(=O)Cn1cnc2c(nnn2Cc2ccc(Cl)cc2)c1=O", "% Inhibition @ 10 uM": -5.79}
{"compound": "C=CCn1c(SCCC)nc(O)cc1=O", "% Inhibition @ 10 uM": -5.84}
{"compound": "Cc1nn(C)c(C)c1CN(C)C(=O)c1cc2nc(-c3ccco3)cc(C(F)(F)F)n2n1", "% Inhibition @ 10 uM": -3.37}
{"compound": "CCN(C(=O)COc1ccc(Cl)cc1C)c1ccccc1", "% Inhibition @ 10 uM": -6.65}
{"compound": "CCCCNC(=O)c1ccc(CS(=O)Cc2ccccc2Cl)o1", "note": "(stereo not shown)", "% Inhibition @ 10 uM": 0.401}
{"compound": "O=Cc1cc2ccccc2nc1Cl", "% Inhibition @ 10 uM": -0.053}
{"compound": "CS(=O)(=O)N(CC(=O)N1CCCCCC1)c1cccc(C(F)(F)F)c1", "% Inhibition @ 10 uM": -2.44}
{"compound": "CC(C)C[C@H](NC(=O)c1ccc(-c2ccc(C(=O)O)cc2Cl)cc1)C(=O)NCC#N", "% Inhibition @ 10 uM": -1.82}
{"compound": "Cc1cc2ccccc2n1-c1ccc(C(=O)NCCC(C)C)s1", "% Inhibition @ 10 uM": -4.14}
{"compound": "CN1CCN(C(=O)/C=C/c2ccc(Cl)cc2)CC1", "% Inhibition @ 10 uM": 5}
{"compound": "O=C1c2ccccc2NC(c2ccc(Cl)cc2)N1c1ccc(Cl)cc1", "note": "(stereo not shown)", "% Inhibition @ 10 uM": 0.177}
{"compound": "O=C1NC(=O)C2(C(=O)N1)C(c1cccc(Cl)c1)NC(=O)NC2c1cccc(Cl)c1", "note": "(stereo not shown)", "% Inhibition @ 10 uM": -3.48}
{"compound": "CCN(CC)CC(=O)c1ccc(-c2ccccc2)cc1", "% Inhibition @ 10 uM": 7.53}
{"compound": "NC(=O)c1ccccc1Nc1ccccc1Cl", "% Inhibition @ 10 uM": -5.13}
{"compound": "Cc1c(C)n(C(=O)CSc2nc3ccccc3o2)c2ccccc12", "% Inhibition @ 10 uM": 4.18}
{"compound": "COC1=C(Cl)C(=O)N(c2c(C)cccc2C)C1=O", "% Inhibition @ 10 uM": -2.87}
{"compound": "COc1ccc(-c2cc(C(=O)Nc3cc(C)on3)c3ccccc3n2)cc1", "% Inhibition @ 10 uM": -5.14}
{"compound": "O=C(Nc1ccc2c(c1)OCO2)c1ccc2c(c1)C(=O)N(C1CCCCC1)C2=O", "% Inhibition @ 10 uM": -5.11}
{"compound": "CCOC(=O)c1c(-c2ccccc2)csc1NC(=O)c1nc(S(C)(=O)=O)ncc1Cl", "% Inhibition @ 10 uM": -3.07}
{"compound": "CCOC(=O)c1cnc2c(C)c(Cl)ccc2c1N1CCOCC1", "% Inhibition @ 10 uM": -2.65}
{"compound": "O=C1CCCC2=C1C(c1cccc(Cl)c1)C1C(=O)c3ccccc3C1=N2", "note": "(stereo not shown)", "% Inhibition @ 10 uM": -1.81}
{"compound": "COc1ccc(/C=C2\\SC(N3CCc4ccccc4C3)=NC2=O)cc1OC", "% Inhibition @ 10 uM": 6.28}
{"compound": "CCc1ccccc1S(=O)(=O)Cc1ccc(C(=O)NC2CCC(C)CC2)o1", "note": "(stereo not shown)", "% Inhibition @ 10 uM": -3.09}
{"compound": "C=CCOc1ccccc1CNCc1cccnc1", "% Inhibition @ 10 uM": 2.08}
